The DeepSol protein solubility set

Assay: soluble on expression in E. coli; label from the status in PepcDB or PDB records

Sequence	soluble on expression in E. coli
MQEQYRPEEIESKVQLHWDEKRTFEVTEDESKEKYYCLSMLPYPSGRLHMGHVRNYTIGDVIARYQRMLGKNVLQPIGWDAFGLPAEGAAVKNNTAPAPWTYDNIAYMKNQLKMLGFGYDWSRELATCTPEYYRWEQKFFTELYKKGLVYKKTSAVNWCPNDQTVLANEQVIDGCCWRCDTKVERKEIPQWFIKITAYADELLNDLDKLDHWPDTVKTMQRNWIGRSEGVEITFNVNDYDNTLTVYTTRPDTFMGCTYLAVAAGHPLAQKAAENNPELAAFIDECRNTKVAEAEMATMEKKGVDTGFKAVHPLTGEEIPVWAANFVLMEYGTGAVMAVPGHDQRDYEFASKYGLNIKPVILAADGSEPDLSQQALTEKGVLFNSGEFNGLDHEAAFNAIADKLTAMGVGERKVNYRLRDWGVSRQRYWGAPIPMVTLEDGTVMPTPDDQLPVILPEDVVMDGITSPIKADPEWAKTTVNGMPALRETDTFDTFMESSWYYARYTCPQYKEGMLDSEAANYWLPVDIYIGGIEHAIMHLLYFRFFHKLMRDAGMVNSDEPAKQLLCQGMVLADAFYYVGENGERNWVSPVDAIVERDEKGRIVKAKDAAGHELVYTGMSKMSKSKNNGIDPQVMVERYGADTVRLFMMFASPADMTLEWQESGVEGANRFLKRVWKLVYEHTAKGDVAALNVDALTENQKALRRDVHKTIAKVTDDIGRRQTFNTAIAAIMELMNKLAKAPTDGEQDRALMQEALLAVVRMLNPFTPHICFTLWQELKGEGDIDNAPWPVADEKAMVEDSTLVVVQVNGKVRAKITVPVDATEEQVRERAGQEHLVAKYLDGVTVRKVIYVPGKLLNLVVG	soluble
SSVALIVGVTGIIGNSLAEILPLADTPGGPWKVYGVARRTRPAWHEDNPINYVQCDISDPDDSQAKLSPLTDVTHVFYVTWANRSTEQENCEANSKMFRNVLDAVIPNCPNLKHISLQTGRKHYMGPFESYGKIESHDPPYTEDLPRLKYMNFYYDLEDIMLEEVEKKEGLTWSVHRPGNIFGFSPYSMMNLVGTLCVYAAICKHEGKVLRFTGCKAAWDGYSDCSDADLIAEHHIWAAVDPYAKNEAFNVSNGDVFKWKHFWKVLAEQFGVECGEYEEGVDLKLQDLMKGKEPVWEEIVRENGLTPTKLKDVGIWWFGDVILGNECFLDSMNKSKEHGFLGFRNSKNAFISWIDKAKAYKIVP	soluble
